Measurements: article PMC9911399, “Two distinct binding modes provide the RNA-binding protein RbFox with extraordinary sequence specificity”
Numbering of substitutions follows the chain as printed; changes in the protein carry UniProt numbers. The list shows a part of the results.

T1: RBFOX1 RRM RbFoxmut (Fox-RRM*) (Homo sapiens, UniProt Q9NWB1 109-208, R118D;E147R;N151S;E152T)
T1 sequence: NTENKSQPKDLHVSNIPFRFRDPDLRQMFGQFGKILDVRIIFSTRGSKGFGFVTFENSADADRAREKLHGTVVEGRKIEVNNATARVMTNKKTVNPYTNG

B1: ACAAGCG (DNA:RNA)
RNA: GGGAGACCGGAAUUCAGAUUGUCCACAAGCGUUAAAUCCCGUCGUAGCCACCA
DNA 1: CAATCTGAATTCCGGTCTCCC
DNA 2: TGGTGGCTACGACGGGATT
B2: CGUAGGG (DNA:RNA)
RNA: B1 RNA with A25C, C26G, A27U, C30G
DNA 1: CAATCTGAATTCCGGTCTCCC
DNA 2: TGGTGGCTACGACGGGATT
B3: UACAAAG (DNA:RNA)
RNA: B1 RNA with A25U, C26A, A27C, G29A, C30A
DNA 1: CAATCTGAATTCCGGTCTCCC
DNA 2: TGGTGGCTACGACGGGATT
B4: AUGAAGU (DNA:RNA)
RNA: B1 RNA with C26U, A27G, G29A, C30G, G31U
DNA 1: CAATCTGAATTCCGGTCTCCC
DNA 2: TGGTGGCTACGACGGGATT
B5: CUUGAGU (DNA:RNA)
RNA: GGGAGACCGGAAUUCAGAUUGUCCCUUGAGUUUAAAUCCCGUCGUAGCCACCA
DNA 1: CAATCTGAATTCCGGTCTCCC
DNA 2: TGGTGGCTACGACGGGATT
B6: GCUUGCU (DNA:RNA)
RNA: B1 RNA with A25G, A27U, A28U, G31U
DNA 1: CAATCTGAATTCCGGTCTCCC
DNA 2: TGGTGGCTACGACGGGATT
B7: GUUAUCA (DNA:RNA)
RNA: B1 RNA with A25G, C26U, A27U, G29U, G31A
DNA 1: CAATCTGAATTCCGGTCTCCC
DNA 2: TGGTGGCTACGACGGGATT
B8: AGAUUAA (DNA:RNA)
RNA: B1 RNA with C26G, A28U, G29U, C30A, G31A
DNA 1: CAATCTGAATTCCGGTCTCCC
DNA 2: TGGTGGCTACGACGGGATT
B9: CGAGGUC (DNA:RNA)
RNA: B1 RNA with A25C, C26G, A28G, C30U, G31C
DNA 1: CAATCTGAATTCCGGTCTCCC
DNA 2: TGGTGGCTACGACGGGATT
B10: CACUUCU (DNA:RNA)
RNA: B5 RNA with U26A, U27C, G28U, A29U, G30C
DNA 1: CAATCTGAATTCCGGTCTCCC
DNA 2: TGGTGGCTACGACGGGATT
B11: CUCGCUC (DNA:RNA)
RNA: B5 RNA with U27C, A29C, G30U, U31C
DNA 1: CAATCTGAATTCCGGTCTCCC
DNA 2: TGGTGGCTACGACGGGATT
B12: GCACCAC (DNA:RNA)
RNA: B1 RNA with A25G, A28C, G29C, C30A, G31C
DNA 1: CAATCTGAATTCCGGTCTCCC
DNA 2: TGGTGGCTACGACGGGATT
B13: GUUUCCU (DNA:RNA)
RNA: B5 RNA with C25G, G28U, A29C, G30C
DNA 1: CAATCTGAATTCCGGTCTCCC
DNA 2: TGGTGGCTACGACGGGATT
B14: CUCCCUU (DNA:RNA)
RNA: B5 RNA with U27C, G28C, A29C, G30U
DNA 1: CAATCTGAATTCCGGTCTCCC
DNA 2: TGGTGGCTACGACGGGATT
B15: GUUCGGU (DNA:RNA)
RNA: B5 RNA with C25G, G28C, A29G
DNA 1: CAATCTGAATTCCGGTCTCCC
DNA 2: TGGTGGCTACGACGGGATT
B16: AGUAGUU (DNA:RNA)
RNA: B1 RNA with C26G, A27U, C30U, G31U
DNA 1: CAATCTGAATTCCGGTCTCCC
DNA 2: TGGTGGCTACGACGGGATT
B17: CAUGAGU (DNA:RNA)
RNA: B5 RNA with U26A
DNA 1: CAATCTGAATTCCGGTCTCCC
DNA 2: TGGTGGCTACGACGGGATT
B18: AGUGUCG (DNA:RNA)
RNA: B1 RNA with C26G, A27U, A28G, G29U
DNA 1: CAATCTGAATTCCGGTCTCCC
DNA 2: TGGTGGCTACGACGGGATT
B19: GCGCAUA (DNA:RNA)
RNA: B1 RNA with A25G, A27G, A28C, G29A, C30U, G31A
DNA 1: CAATCTGAATTCCGGTCTCCC
DNA 2: TGGTGGCTACGACGGGATT
B20: GCGGGCA (DNA:RNA)
RNA: B1 RNA with A25G, A27G, A28G, G31A
DNA 1: CAATCTGAATTCCGGTCTCCC
DNA 2: TGGTGGCTACGACGGGATT

Each binder was assayed against T1, RBFOX1 RRM RbFoxmut (Fox-RRM*) (assay: EMSA; HiTS-Eq, 1 nM pool, 10 min; buffer printed only for the single-RNA assays: 10 mM Tris pH 7.5, 150 mM NaCl, 3.4 mM EDTA, 0.001% NP-40, 30 C). Conditions: tags: His6 N-terminal (pET28a); label: 5' 32P.
How it was run: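 Purified RbFox RRM (wild type or mutant) was equilibrated for 10 min in 50 µL with 1 nM of a 5′-radiolabelled pool of RNA with 7 randomized nucleotides, its flanks annealed to DNA oligonucleotides, across increasing protein concentrations. Free RNA was separated by 8% native PAGE, excised, reverse-transcribed, PCR-barcoded and sequenced on an Illumina HiSeq 2500. Relative association constants came from read-count changes of each variant against the control reaction, normalised to the cognate motif.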
B1 was tested, and the binding signal was 0.0957 KA relative to UGCAUGU.
In the case of B2, the binding signal is reported as 0.0658 KA relative to UGCAUGU.
B3 was tested, and the binding signal was 0.0551 KA relative to UGCAUGU.
In the case of B4, the binding signal is reported as 0.108 KA relative to UGCAUGU.
With B5 the binding signal was 0.13 KA relative to UGCAUGU.
In the case of B6, the binding signal is reported as 0.166 KA relative to UGCAUGU.
In the case of B7, the binding signal is reported as 0.18 KA relative to UGCAUGU.
B8 was tested, and the binding signal was 0.104 KA relative to UGCAUGU.
B9 was tested, and the binding signal was 0.165 KA relative to UGCAUGU.
For B10, the binding signal was 0.0926 KA relative to UGCAUGU.
For B11, the binding signal was 0.0607 KA relative to UGCAUGU.
For B12, the binding signal was 0.0681 KA relative to UGCAUGU.
B13 was tested, and the binding signal was 0.0859 KA relative to UGCAUGU.
B14 was tested, and the binding signal was 0.0481 KA relative to UGCAUGU.
For B15, the binding signal was 0.122 KA relative to UGCAUGU.
B16 was tested, and the binding signal was 0.101 KA relative to UGCAUGU.
With B17 the binding signal was 0.149 KA relative to UGCAUGU.
B18 was tested, and the binding signal was 0.141 KA relative to UGCAUGU.
In the case of B19, the binding signal is reported as 0.152 KA relative to UGCAUGU.
With B20 the binding signal was 0.0836 KA relative to UGCAUGU.
